Data published in patent US4206127A, “5,6-Dihydro analogues of prostaglandin I2” (Miles Laboratories, Inc., priority 1978, dated 1980).
The name of at least one read-out is uncertain.

system: rat gastric secretion; assay: Effects of Prostaglandin Analogues on Gastric Secretion in the Rat (Test B); assay type: in vivo; details: pylorus-ligated rats, subcutaneous 1.5 mg/kg twice (total 3.0 mg/kg), 4 hours
Experimental: B. Evaluation of the Effects of Prostaglandin Analogues on Gastric Secretion in the Rat
A procedure based on that described by Lipmann (J. Pharm. Pharmacol., 21: 335 [1968]) was used to assess the influence of test compounds on gastric secretion. Rats of one sex weighing 150 to 200 g were randomly divided into groups of six animals each and fasted for 48 hours previously to the experiments, water being available ad libitum. The animals were anesthetized with ether, the abdomen was opened through a midline incision and the pylorus was ligated. Test compounds were diluted from stock solution so as to administer a dose of 1.5 mg/kg in a volume equivalent to 1 ml/kg. Subcutaneous injections were applied immediately after surgery and again 2 hours later, so that a total dose of 3.0 mg/kg was administered. Dilutions were made with phosphate buffer (pH 7.38), as recommended by Lee et al. (Prostaglandins 3: 29 [1973]), in order to insure adequate stability of drugs at the subcutaneous depot. Each compound was tested in one group of rats; an additional control group received only the vehicle.
Four hours after pyloric ligation the animals were killed with ether, the cardias ligated and stomachs removed. The volume of gastric secretion was measured and the contents centrifuged at 5000 rpm for 10 minutes. Total acid in the supernatant was titrated against a 0.1 N sodium hydroxide solution and the amount expressed in mEq.
Volume and total acid values of the treated group were compared with those of the controls by the "Squared" test. Antisecretory activity was scored according to the following scale: […]

Row | SMILES | Activity Value, Test B - inhibition of rat gastric secretion (score of % decrease in acidity)
1 | CCCCCC/C=C/[C@H]1CCC[C@@H]2OC(CCCCC(=O)O)C[C@@H]21 (relative stereo) [TR-4914, dl-9a-Homo-6, 9α-epoxyprost-13E-en-1-oic acid] | 0 (<26)
2 | CCCCC[C@H](O)/C=C/[C@@H]1[C@H]2CC(CCCCC(=O)OCC)O[C@H]2C[C@H]1O (stereo partly drawn) [TR-4811, Ethyl 6, 9α-Epoxy-11α, 15S-dihydroxyprost-13E-en-1-oate] | 0 (<26)
3 | CCCCC[C@H](O)/C=C/[C@@H]1[C@H]2CCC(CCCC(=O)OCC)O[C@@H]2C[C@H]1O (stereo partly drawn) [TR-4827, Ethyl 5, 9β-Epoxy-11α, 15S-dihydroxyprost-13E-en-1-oate] | 2 (26-50, significant)
4 | CCCCC[C@H](O)/C=C/[C@@H]1[C@H]2CC(CCCCC(=O)O)O[C@H]2C[C@H]1O (stereo partly drawn) [TR-4913, 6, 9α-Epoxy-11α-15S-dihydroxyprost-13E-en-1-oic acid] | 2 (26-50, significant)
5 | CCCCC[C@H](O)/C=C/[C@@H]1[C@H]2CCC(CCCC(=O)O)O[C@@H]2C[C@H]1O (stereo partly drawn) [TR-4919, 5, 9β-Epoxy-11α, 15S-dihydroxyprost-13E-en-1-oic acid] | 2 (26-50, significant)
6 | CCOC(=O)CCCCC1C[C@@H]2[C@@H](/C=C/[C@H](O)C3CCCCC3)[C@H](O)C[C@@H]2O1 (stereo partly drawn) [TR-4965, Ethyl 6, 9α-Epoxy-11α, 15R-dihyroxy-16, 20-methanoprost-13E-en-1-oate] | 1 (26-50, not significant)
7 | OCCCCCC1C[C@@H]2[C@@H](/C=C/[C@H](O)C3CCCCC3)[C@H](O)C[C@@H]2O1 (stereo partly drawn) [TR-4970, 6, 9α-epoxy-16, 20-methanoprost-13E-ene-1, 11α,15R-triol] | 1 (26-50, not significant)
8 | CCCCC(C)(C)C(O)/C=C/[C@@H]1[C@H]2C[C@@H](CCCCC(=O)OCC)O[C@H]2C[C@H]1O (stereo partly drawn) [TR-7006, Ethyl 6, 9α-epoxy-11α,15R-dihydroxy-16,16-dimethylprost-13E-en-1-oate] | 1 (26-50, not significant)
9 | CCCCC(C)(C)[C@H](O)/C=C/[C@@H]1[C@H]2CC[C@@H](CCCC(=O)OCC)O[C@@H]2C[C@H]1O [TR-7010, Ethyl 5, 9β-epoxy-11α,15R-dihydroxy-16,16-dimethylprost-13E-en-1-oate] | 3 (51-75)
10 | CCCCCC/C=C/[C@@H]1[C@H]2CCC(CCCC(=O)OCC)O[C@@H]2C[C@H]1O (stereo partly drawn) [TR-7018, Ethyl 5, 9β-Epoxy-11=-hydroxyprost-13E-en-1-oate] | 0 (<26)
